# Measurements from the supplement of paper PMC12217912.
# The other results are listed elsewhere or left out. Sequences were assembled here from the parent chain. Inactive controls read about 0.05.
# B1: TEV protease; numbered along this chain (parent)
# chain: MGESLFKGPRDYNPISSSICHLTNESDGHTTSLYGIGFGPFIITNKHLFRRNNGTLVVQSLHGVFKVKDTTTLQQHLVDGRDMIIIRMPKDFPPFPQKLKFREPQREERICLVTTNFQTKSMSSMVSDTSCTFPSGDGIFWKHWIQTKDGQCGSPLVSTRDGFIVGIHSASNFTNTNNYFTSVPKNFMELLTNQEAQQWVSGWRLNADSVLWGGHKVFMVKPEEPFQPVKEATQL
# Variants of: B1
# Assay: raw area under fraction-flipped curve 0-4 h after induction (AUC4h, not background-subtracted), DNA-recorder readout of cleavage of the substrate (dimensionless); higher = more cleavage of the substrate by the protease variant
# Conditions: temperature: 34 °C; time window: 0-4 h after rhamnose induction
# Method: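 In vivo DNA recorder in E. coli TOP10(DE3) ΔrhaA at 34 °C. Each TEVp single-site mutant (parent TEVp 0) is paired with a single-site variant of the 7-mer TEVs (canonical ENLYFQ|S). The substrate sits between flexible linkers in a Bxb1-sfGFP-TEVs-SsrA fusion, so cleavage stabilises Bxb1 and speeds flipping of a recombination array, read by NGS. The value is the raw area under the fraction-flipped curve over 0-4 h after rhamnose induction (AUC4h), with ≥20 reads per time point. It is not background-subtracted; inactive controls average about 0.047.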
# 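Note: Bxb1 expression induced with 0.2% (w/v) L-rhamnose at OD600 near 0.5, cultures sampled hourly, flipped fraction per protease–substrate barcode pair counted by paired-end Illumina sequencing.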
Variant,area with substrate ENAYFQS,area with substrate ENCYFQS,area with substrate ENDYFQS,area with substrate ENEYFQS,area with substrate ENFYFQS,area with substrate ENGYFQS,area with substrate ENHYFQS,area with substrate ENIYFQS,area with substrate ENKYFQS,area with substrate ENNYFQS,area with substrate ENPYFQS,area with substrate ENQYFQS,area with substrate ENRYFQS,area with substrate ENSYFQS,area with substrate ENVYFQS,area with substrate ENWYFQS,area with substrate ENYYFQS,area with substrate ENMYFQS,area with substrate ENTYFQS
H29A,0.0496,0.0619,0.0675,0.0596,0.059,0.0568,0.0631,0.118,0.0745,0.0769,0.0557,0.0642,0.0501,0.0574,0.0794,0.0584,0.0625,–,–
H29D,0.0565,0.059,0.07,0.0546,–,0.0883,0.0574,0.116,0.0813,0.0603,0.0382,0.0611,0.0338,0.0776,0.0729,–,0.0359,0.11,0.0569
H29E,0.0705,0.0666,0.0569,0.0564,–,0.0566,0.0531,0.103,–,0.0637,–,0.049,–,0.0536,0.0817,–,0.0626,0.0794,0.0671
H29R,0.0366,0.043,0.067,0.0465,–,0.0707,0.0596,–,–,–,–,0.0497,–,0.0612,0.073,0.0466,–,0.0485,0.0543
T30F,0.0565,0.0637,0.0663,0.0685,0.0684,0.0584,0.0616,0.0881,0.0528,0.0562,0.0688,0.0686,0.0662,0.0611,0.0765,–,0.0618,–,0.0581
T30W,0.0665,0.0537,0.0646,0.0512,–,0.0516,0.0649,0.116,–,–,0.0517,0.0438,0.0563,0.0898,0.0857,0.0537,0.0381,–,–
T31F,0.069,0.0673,0.0702,0.0654,0.0466,0.0603,0.0619,0.0987,0.0939,0.0565,0.0572,0.0593,–,0.0547,0.0644,–,0.0615,–,0.0517
T31P,0.0573,0.0645,–,0.0498,0.0622,–,–,0.0607,0.0579,–,–,–,0.0618,0.0564,0.0524,–,0.0626,0.0511,0.0587
T31W,0.0664,0.0617,0.0605,–,0.0475,0.0262,0.0441,0.0679,–,0.0559,–,0.0566,0.0622,0.0305,–,0.0599,0.0643,0.0898,0.0579
I36A,0.0488,–,0.0511,0.054,0.05,–,0.0788,0.0906,0.0681,0.0552,0.0295,0.0589,0.051,0.0616,0.0509,0.0051,–,–,0.0568
I36D,0.046,0.0396,0.0469,0.0459,0.05,0.0414,–,0.0274,0.0494,0.0321,–,0.0534,0.0383,0.0332,0.0392,0.0336,0.0406,–,0.0343
I36E,0.0485,0.0509,0.0445,0.0517,0.0466,0.0435,0.0503,–,0.045,0.0324,0.0356,0.0466,–,0.043,0.0426,0.0522,0.0574,–,0.0489
I36R,0.0496,0.0402,0.0539,0.0475,0.0437,–,0.0501,0.0545,–,0.039,–,0.0366,0.0437,0.0369,0.0406,–,0.0462,–,–
I36V,0.045,0.0544,0.0618,0.0597,–,0.053,–,–,0.0571,–,–,0.0609,0.0545,0.0542,–,0.0575,–,0.0739,–
G37P,0.0491,0.0484,0.0392,0.0489,–,–,–,0.0516,–,0.0418,0.0444,0.044,0.0402,0.06,0.044,–,0.0853,–,0.0529
G39Q,0.0391,0.0521,0.0323,0.0328,–,0.0359,–,–,–,0.0541,0.033,0.0386,0.0362,0.0477,0.0412,–,0.0481,–,0.0063
G39W,0.0537,–,0.0461,0.0454,–,0.0368,0.0615,0.0399,0.0607,0.0426,0.0451,0.0443,0.0384,0.0519,0.0379,–,–,0.0421,0.0383
F41W,0.07,0.0643,0.0652,0.0495,–,0.0599,–,–,–,–,0.0649,0.0505,0.0547,0.0495,0.0641,0.0286,–,0.0698,0.0612
I42C,0.0545,0.0628,0.0643,0.0652,0.0608,0.0612,0.0569,0.0931,0.0598,0.0617,0.0342,0.0635,0.0564,0.055,0.0561,–,–,–,0.0577
I42Y,0.0482,0.0419,0.0457,0.0567,0.0563,0.0519,0.0495,0.0238,0.0463,0.0464,0.0412,0.0445,0.0486,0.0493,0.0369,0.0419,0.0363,–,0.0519
T44D,0.0512,0.0446,0.0264,0.0351,0.0487,–,0.0348,0.0578,0.0455,–,0.0469,0.0437,0.0354,0.07,0.0541,0.0391,–,0.0332,0.0574
T44W,0.0376,0.0487,0.0489,0.0547,0.0544,0.0315,–,–,0.0464,0.039,0.0395,–,0.0708,0.0462,0.0483,0.0431,0.0663,0.0378,0.0879
N45H,0.0659,0.0616,0.0507,0.0613,0.0921,0.0771,–,0.0646,–,0.0691,–,0.0606,0.0485,0.062,0.0715,0.0114,–,0.0618,0.0535
N45I,0.0541,0.0613,0.0609,0.0673,0.0625,–,0.0626,–,0.0509,0.0568,0.0506,0.0508,0.0568,0.0622,0.0513,0.0536,–,0.0649,0.0634
